# Measurements taken from the supplement of paper PMC8728848.
# This is one part of the list.
# B1: rCnSL-proB (Clitocybe nebularis) (protein)
# chain: PTFSPIFALLAFLPFGTLASLLPQTQLVFRINPNLPGPNDVFVGYRGTNNVVGAIYERDGIKDTPMNNGADAELGPGSYITDDLFTAQIFASGSAGNNPGTTATVCKIYADGVQWRGAPKGYLPVLYFGNGQAAEQTRQTYLQGLDIPGTAIRFANLAKTPNQGPTAPRQMVVPSGGLQTLLKASCFPANHAALPQVLSYFNVRAALPPGWNIRTGPEFPNWTN
# Legend:
# Experiment in all cases: glycan array binding signal (z-score within array); higher = stronger binding
# Details in all cases: glycan notation: IUPAC condensed, linker removed
# [1] = biological target: Neu5Ac(a2-3)Gal(b1-3)GalNAc
# Summary of the method: (§1)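 Negative Z-scores can be read as non-binding. The Z-score is calculated within each array and then averaged across arrays of one protein sequence at different concentrations or buffers and across linkers. Arrays, 3228 in all, were curated from the Consortium for Functional Glycomics database and kept only where the protein sequence was available.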
# [2] = biological target: Neu5Ac(a2-3)Gal(b1-3)GalNAc(b1-3)Gal(a1-4)Gal(b1-4)Glc
# Summary of the method: as §1
# [3] = biological target: Neu5Ac(a2-3)Gal(b1-3)GalNAc(b1-4)[Neu5Ac(a2-3)]Gal(b1-4)Glc
# Summary of the method: as §1
# [4] = biological target: Neu5Ac(a2-3)Gal(b1-3)GalNAc(b1-4)[Neu5Ac(a2-8)Neu5Ac(a2-3)]Gal(b1-4)Glc
# Summary of the method: as §1
# [5] = biological target: Neu5Ac(a2-3)Gal(b1-3)GalNAc6S
# Summary of the method: as §1
# [6] = biological target: Neu5Ac(a2-3)Gal(b1-3)GlcNAc
# Summary of the method: as §1
# [7] = biological target: Neu5Ac(a2-3)Gal(b1-3)GlcNAc(b1-2)Man
# Summary of the method: as §1
# [8] = biological target: Neu5Ac(a2-3)Gal(b1-3)GlcNAc(b1-2)Man(a1-3)[GlcNAc(b1-4)][Neu5Ac(a2-3)Gal(b1-3)GlcNAc(b1-2)Man(a1-6)]Man(b1-4)GlcNAc(b1-4)GlcNAc
# Summary of the method: as §1
# [9] = biological target: Neu5Ac(a2-3)Gal(b1-3)GlcNAc(b1-2)Man(a1-3)[Neu5Ac(a2-3)Gal(b1-3)GlcNAc(b1-2)Man(a1-6)]Man(b1-4)GlcNAc(b1-4)GlcNAc
# Summary of the method: as §1
# [10] = biological target: Neu5Ac(a2-3)Gal(b1-3)GlcNAc(b1-2)[Neu5Ac(a2-3)Gal(b1-3)GlcNAc(b1-4)]Man(a1-6)[Neu5Ac(a2-3)Gal(b1-3)GlcNAc(b1-2)Man(a1-3)]Man(b1-4)GlcNAc(b1-4)GlcNAc
# Summary of the method: as §1
# [11] = biological target: Neu5Ac(a2-3)Gal(b1-3)GlcNAc(b1-3)Gal(b1-3)GlcNAc
# Summary of the method: as §1
# [12] = biological target: Neu5Ac(a2-3)Gal(b1-3)GlcNAc(b1-3)Gal(b1-4)GlcNAc
# Summary of the method: as §1
# [13] = biological target: Neu5Ac(a2-3)Gal(b1-3)GlcNAc(b1-3)GalNAc
# Summary of the method: as §1
# [14] = biological target: Neu5Ac(a2-3)Gal(b1-3)GlcNAc(b1-4)Gal(b1-4)Glc
# Summary of the method: as §1
# [15] = biological target: Neu5Ac(a2-3)Gal(b1-3)GlcNAc(b1-6)GalNAc
# Summary of the method: as §1
# [16] = biological target: Neu5Ac(a2-3)Gal(b1-3)GlcNAc6S
# Summary of the method: as §1
# [17] = biological target: Neu5Ac(a2-3)Gal(b1-3)[Fuc(a1-4)]GlcNAc
# Summary of the method: as §1
# [18] = biological target: Neu5Ac(a2-3)Gal(b1-3)[Fuc(a1-4)]GlcNAc(b1-3)Gal(b1-3)[Fuc(a1-4)]GlcNAc
# Summary of the method: as §1
# [19] = biological target: Neu5Ac(a2-3)Gal(b1-3)[Fuc(a1-4)]GlcNAc(b1-3)Gal(b1-4)[Fuc(a1-3)]GlcNAc
# Summary of the method: as §1
# [20] = biological target: Neu5Ac(a2-3)Gal(b1-3)[GlcNAc(b1-6)]GalNAc
# Summary of the method: as §1
# [21] = biological target: Neu5Ac(a2-3)Gal(b1-3)[Neu5Ac(a2-6)]GalNAc
# Summary of the method: as §1
# [22] = biological target: Neu5Ac(a2-3)Gal(b1-3)[Neu5Ac(a2-6)]GlcNAc(b1-3)[Fuc(a1-3)[Gal(b1-4)]GlcNAc(b1-6)]Gal(b1-4)Glc
# Summary of the method: as §1
# [23] = biological target: Neu5Ac(a2-3)Gal(b1-3)]Neu5Ac(a2-3)Gal(b1-4)]GlcNAc
# Summary of the method: as §1
# [24] = biological target: Neu5Ac(a2-3)Gal(b1-4)Glc
# Summary of the method: as §1
# [25] = biological target: Neu5Ac(a2-3)Gal(b1-4)GlcNAc
# Summary of the method: as §1
# [26] = biological target: Neu5Ac(a2-3)Gal(b1-4)GlcNAc(b1-2)Man
# Summary of the method: as §1
# [27] = biological target: Neu5Ac(a2-3)Gal(b1-4)GlcNAc(b1-2)Man(a1-3)[GlcNAc(b1-4)][Neu5Ac(a2-3)Gal(b1-4)GlcNAc(b1-2)Man(a1-6)]Man(b1-4)GlcNAc(b1-4)GlcNAc
# Summary of the method: as §1
# [28] = biological target: Neu5Ac(a2-3)Gal(b1-4)GlcNAc(b1-2)Man(a1-3)[Neu5Ac(a2-3)Gal(b1-4)GlcNAc(b1-2)Man(a1-6)]Man(b1-4)GlcNAc(b1-4)GlcNAc
# Summary of the method: as §1
# [29] = biological target: Neu5Ac(a2-3)Gal(b1-4)GlcNAc(b1-2)Man(a1-3)[Neu5Ac(a2-3)Gal(b1-4)GlcNAc(b1-2)Man(a1-6)]Man(b1-4)GlcNAc(b1-4)[Fuc(a1-6)]GlcNAc
# Summary of the method: as §1
# [30] = biological target: Neu5Ac(a2-3)Gal(b1-4)GlcNAc(b1-2)Man(a1-3)[Neu5Ac(a2-6)Gal(b1-4)GlcNAc(b1-2)Man(a1-6)]Man(b1-4)GlcNAc(b1-4)GlcNAc
# Summary of the method: as §1
# [31] = biological target: Neu5Ac(a2-3)Gal(b1-4)GlcNAc(b1-2)[Neu5Ac(a2-3)Gal(b1-4)GlcNAc(b1-4)]Man(a1-3)[GlcNAc(b1-4)][Neu5Ac(a2-3)Gal(b1-4)GlcNAc(b1-2)[Neu5Ac(a2-3)Gal(b1-4)GlcNAc(b1-6)]Man(a1-6)]Man(b1-4)GlcNAc(b1-4)GlcNAc
# Summary of the method: as §1
# [32] = biological target: Neu5Ac(a2-3)Gal(b1-4)GlcNAc(b1-2)[Neu5Ac(a2-3)Gal(b1-4)GlcNAc(b1-4)]Man(a1-3)[GlcNAc(b1-4)][Neu5Ac(a2-3)Gal(b1-4)GlcNAc(b1-4)Man(a1-6)]Man(b1-4)GlcNAc(b1-4)GlcNAc
# Summary of the method: as §1
# [33] = biological target: Neu5Ac(a2-3)Gal(b1-4)GlcNAc(b1-2)[Neu5Ac(a2-3)Gal(b1-4)GlcNAc(b1-6)]Man(a1-6)[Neu5Ac(a2-3)Gal(b1-4)GlcNAc(b1-2)Man(a1-3)][GlcNAc(b1-4)]Man(b1-4)GlcNAc(b1-4)GlcNAc
# Summary of the method: as §1
# [34] = biological target: Neu5Ac(a2-3)Gal(b1-4)GlcNAc(b1-3)Gal
# Summary of the method: as §1
# [35] = biological target: Neu5Ac(a2-3)Gal(b1-4)GlcNAc(b1-3)Gal(b1-3)GlcNAc
# Summary of the method: as §1
# [36] = biological target: Neu5Ac(a2-3)Gal(b1-4)GlcNAc(b1-3)Gal(b1-4)GlcNAc
# Summary of the method: as §1
# [37] = biological target: Neu5Ac(a2-3)Gal(b1-4)GlcNAc(b1-3)Gal(b1-4)GlcNAc(b1-2)Man(a1-3)[Neu5Ac(a2-3)Gal(b1-4)GlcNAc(b1-3)Gal(b1-4)GlcNAc(b1-2)Man(a1-6)]Man(b1-4)GlcNAc(b1-4)GlcNAc
# Summary of the method: as §1
# [38] = biological target: Neu5Ac(a2-3)Gal(b1-4)GlcNAc(b1-3)Gal(b1-4)GlcNAc(b1-3)Gal(b1-4)GlcNAc
# Summary of the method: as §1
# [39] = biological target: Neu5Ac(a2-3)Gal(b1-4)GlcNAc(b1-3)Gal(b1-4)GlcNAc(b1-3)Gal(b1-4)GlcNAc(b1-2)Man(a1-3)[Neu5Ac(a2-3)Gal(b1-4)GlcNAc(b1-3)Gal(b1-4)GlcNAc(b1-3)Gal(b1-4)GlcNAc(b1-2)Man(a1-6)]GalNAc
# Summary of the method: as §1
# [40] = biological target: Neu5Ac(a2-3)Gal(b1-4)GlcNAc(b1-3)Gal(b1-4)GlcNAc(b1-3)GalNAc
# Summary of the method: as §1
# [41] = biological target: Neu5Ac(a2-3)Gal(b1-4)GlcNAc(b1-3)Gal(b1-4)GlcNAc(b1-3)[Neu5Ac(a2-3)Gal(b1-4)GlcNAc(b1-3)Gal(b1-4)GlcNAc(b1-6)]GalNAc
# Summary of the method: as §1
# [42] = biological target: Neu5Ac(a2-3)Gal(b1-4)GlcNAc(b1-3)Gal(b1-4)GlcNAc(b1-6)[Gal(b1-3)]GalNAc
# Summary of the method: as §1
# [43] = biological target: Neu5Ac(a2-3)Gal(b1-4)GlcNAc(b1-3)Gal(b1-4)[Fuc(a1-3)]GlcNAc
# Summary of the method: as §1
# [44] = biological target: Neu5Ac(a2-3)Gal(b1-4)GlcNAc(b1-3)GalNAc
# Summary of the method: as §1
# [45] = biological target: Neu5Ac(a2-3)Gal(b1-4)GlcNAc(b1-3)[Neu5Ac(a2-3)Gal(b1-4)GlcNAc(b1-6)]GalNAc
# Summary of the method: as §1
binder,measurement,setting,value
B1,glycan array binding signal (z-score),[1],-0.437
same,glycan array binding signal (z-score),[2],-0.235
same,glycan array binding signal (z-score),[3],-0.343
same,glycan array binding signal (z-score),[4],-0.807
same,glycan array binding signal (z-score),[5],-0.48
same,glycan array binding signal (z-score),[6],0.332
same,glycan array binding signal (z-score),[7],-0.191
same,glycan array binding signal (z-score),[8],0.265
same,glycan array binding signal (z-score),[9],3.69
same,glycan array binding signal (z-score),[10],0.146
same,glycan array binding signal (z-score),[11],-0.53
same,glycan array binding signal (z-score),[12],-0.462
same,glycan array binding signal (z-score),[13],-0.205
same,glycan array binding signal (z-score),[14],-0.533
same,glycan array binding signal (z-score),[15],-0.08
same,glycan array binding signal (z-score),[16],0.395
same,glycan array binding signal (z-score),[17],-0.555
same,glycan array binding signal (z-score),[18],-1.06
same,glycan array binding signal (z-score),[19],0.025
same,glycan array binding signal (z-score),[20],-0.475
same,glycan array binding signal (z-score),[21],-0.637
same,glycan array binding signal (z-score),[22],0.033
same,glycan array binding signal (z-score),[23],-0.547
same,glycan array binding signal (z-score),[24],0.387
same,glycan array binding signal (z-score),[25],-1.12
same,glycan array binding signal (z-score),[26],0.266
same,glycan array binding signal (z-score),[27],0.189
same,glycan array binding signal (z-score),[28],-0.625
same,glycan array binding signal (z-score),[29],-0.176
same,glycan array binding signal (z-score),[30],-0.374
same,glycan array binding signal (z-score),[31],-0.474
same,glycan array binding signal (z-score),[32],-0.531
same,glycan array binding signal (z-score),[33],-0.904
same,glycan array binding signal (z-score),[34],0.004
same,glycan array binding signal (z-score),[35],-0.271
same,glycan array binding signal (z-score),[36],0.006
same,glycan array binding signal (z-score),[37],1.89
same,glycan array binding signal (z-score),[38],-0.766
same,glycan array binding signal (z-score),[39],4.43
same,glycan array binding signal (z-score),[40],-0.334
same,glycan array binding signal (z-score),[41],0.264
same,glycan array binding signal (z-score),[42],-0.055
same,glycan array binding signal (z-score),[43],-0.633
same,glycan array binding signal (z-score),[44],-0.02
same,glycan array binding signal (z-score),[45],-0.215
